Data: the supplement of paper PMC3334620
Over roughly 33,000 sequences, “E-score (-0.5 to 0.5)” has its median near -0.012; the highest 2% begin near 0.29. The list shows a part of the results.

Target: T1, Ybr033w (UniProt P38073)
T1 sequence: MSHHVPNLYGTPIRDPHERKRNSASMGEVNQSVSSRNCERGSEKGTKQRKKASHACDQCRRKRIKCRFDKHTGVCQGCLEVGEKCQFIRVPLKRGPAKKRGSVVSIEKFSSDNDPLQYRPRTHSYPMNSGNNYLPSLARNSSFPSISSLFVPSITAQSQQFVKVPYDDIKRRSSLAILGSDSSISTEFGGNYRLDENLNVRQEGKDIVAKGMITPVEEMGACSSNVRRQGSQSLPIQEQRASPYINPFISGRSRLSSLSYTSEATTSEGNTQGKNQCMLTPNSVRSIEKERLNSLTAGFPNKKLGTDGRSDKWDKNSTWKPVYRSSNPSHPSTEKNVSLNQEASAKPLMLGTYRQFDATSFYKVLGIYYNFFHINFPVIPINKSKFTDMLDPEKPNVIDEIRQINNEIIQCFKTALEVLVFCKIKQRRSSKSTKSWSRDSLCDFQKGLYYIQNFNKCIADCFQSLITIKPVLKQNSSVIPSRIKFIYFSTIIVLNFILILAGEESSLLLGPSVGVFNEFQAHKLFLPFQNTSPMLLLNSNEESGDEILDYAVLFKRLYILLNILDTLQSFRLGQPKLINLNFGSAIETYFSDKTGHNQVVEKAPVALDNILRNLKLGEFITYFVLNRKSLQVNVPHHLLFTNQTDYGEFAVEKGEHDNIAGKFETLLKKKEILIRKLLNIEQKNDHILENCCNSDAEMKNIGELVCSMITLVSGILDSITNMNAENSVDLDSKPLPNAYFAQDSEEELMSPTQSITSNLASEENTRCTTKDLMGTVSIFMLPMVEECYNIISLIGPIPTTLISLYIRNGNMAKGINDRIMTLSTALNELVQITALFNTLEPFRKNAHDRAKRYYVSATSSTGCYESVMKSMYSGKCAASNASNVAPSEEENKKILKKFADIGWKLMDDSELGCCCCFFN
Test: PBM E-score (8-mer binding enrichment) (E-score (-0.5 to 0.5)); higher = stronger / more preferred TF binding; most listed sequences are background and not binding sites
Conditions: protein concentration: 200 nM; construct: GST-full length
Outline: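 GST-tagged yeast TFs (full-length or DNA-binding domain) were made by PURExpress in vitro transcription/translation and applied at about 100-200 nM to universal all-10-mer Agilent arrays. The arrays were made double-stranded by primer extension, on fresh or once-stripped slides. Bound protein was detected with fluorescent anti-GST, and scans were normalised with masliner. Each ungapped eight-base word, pooled with its reverse complement, received an E-score (modified Wilcoxon-Mann-Whitney statistic) from the Universal PBM Analysis Suite.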

Sequence	PBM E-score
AAGTCGCT	-0.0995
GGAGGCCC	-0.319
CGCCGGGC	-0.226
GAGCTTAC	0.0325
ATGTACAC	0.0657
CCCGGGGC	-0.191
CCCTGACG	-0.138
CACGCGGA	-0.091
GAACCATC	0.083
GACCAAAA	0.27
GCGGATAA	0.416
AACTCAGT	0.0757
TACACAAA	0.204
CCGCCAAA	0.0792
AACTACAC	0.134
CCACCCAG	-0.15
AATAGCTA	0.0993
GATAGTCA	-0.0395
GTATGGAA	0.085
CCTGTGAA	0.0953
GCTCTTAA	0.0193
GGGGTAGA	-0.0421
AAAGCATA	0.0585
ATCTATAA	0.197
CAGGTACA	-0.0554

Sequence	PBM E-score
CATATTCC	0.0424
GGGCTCCA	-0.334
TATTGCAA	0.246
CGCAAAAG	-0.0343
CGTACCTA	-0.114
CATATCCC	0.101
CGACTCAC	-0.144
AGGGGAAT	0.0254
GGAAGCAC	-0.063
CTTAGAGA	-0.0853
CTAGAGAA	0.137
AAGCAAGG	-0.0139
AACCTCAG	0.0743
TACCAGGA	0.0574
TAAAGTCA	0.117
ATGTAGCA	0.0511
CAAGGCCC	-0.129
AGAATCGG	-0.0802
ACTATATG	0.256
TTAGTGAA	0.14
CAAAAGAC	0.0582
GATGCCCA	-0.0455
GAGGATGC	-0.183
CTCGCTCA	0.00555
GCATATAA	0.102

Sequence	PBM E-score
CACATTGC	0.16
ATCGGATA	0.199
CTGCCTTA	-0.146
CGTGATCC	-0.149
CTGGCGCC	-0.0825
CACCCTAC	0.0503
CCCTAAAG	-0.225
CGGGGAGA	-0.304
CTGAGCTC	-0.105
GGTTTGAC	-0.0432
CGTAGAAG	0.00869
ATACGTGG	0.177
TAAATCCA	0.182
ATATCTGG	0.137
ACTACGAC	-0.0273
CTTCATTC	0.0202
CTCCGCAG	0.0368
GATAAGGC	-0.12
AAAAGGCG	-0.159
CCTAATCC	-0.274
AATAAATC	0.263
GAGTTGAA	-0.064
CATACGAA	0.149
CTTCCCGC	0.0878
GTCCCCTA	-0.329

Sequence	PBM E-score
AGTGAACT	-0.0359
ACCCATCA	-0.172
AGGGCCCA	-0.356
AACTGGCT	-0.0714
AGAGCGGG	-0.187
CGAAGGCC	-0.246
CAGAGCAC	-0.115
GATCTGGC	-0.0426
GGGGGCAC	-0.389
ATCGGTGG	-0.146
ATCCGATG	0.0624
CCCCTTCC	-0.297
ATTCACAA	0.294
ACTAAAGG	0.0297
GAATGGGC	-0.0502
CGCACGCG	-0.198
CGAAGCCG	-0.216
ACATGCTA	-0.0448
CTAATTAC	0.131
GGTAATAA	0.228
AGAGTCAA	-0.0338
AGCAATAT	0.282
AGGTAGCA	-0.121
CTTGTGGA	0.0482
ATGTACGG	0.0999

Sequence	PBM E-score
CATGGGAA	0.102
AAGGAGAC	-0.139
CGCGTTTA	0.0944
CGAAGTCG	0.0931
ACCATAGG	-0.0779
AATAAAAA	0.252
GAGTTAGA	-0.0392
GATGGTAA	0.0411
AGTTGGCG	0.0839
GATTATCA	0.19
GACAGAGA	-0.066
CGACGTCG	-0.00674
CCGATGCG	-0.209
GGCTTGGA	-0.168
CGGTACGA	-0.239
ACCCATTA	0.0435
GTGCTTGA	0.0747
CGAACACG	-0.144
CCCACGCG	-0.284
AAGGGGCT	-0.163
CAAGTGTG	0.0102
GCGTATCC	-0.146
AATTGCCG	0.0142
ACTCCCCG	0.0663
GGCGGACA	-0.0294

Sequence	PBM E-score
GCCAGTTA	-0.00597
CTTAAATA	0.114
CGACCCTA	-0.196
AGTCGTAT	0.0278
GGTGACCA	-0.121
CCCTGCTC	-0.242
CTGCGTGC	-0.0264
GGAGACCA	-0.208
CTCTAGGC	-0.153
CCGGACGG	-0.247
CGCCCTTA	-0.128
CACTGATC	0.0744
CCTGAAAC	0.125
CATATTCA	0.0595
AGGGTGAA	-0.00596
CGGCATGA	-0.0494
CTTTACCC	-0.0404
TTCTGAAA	0.0473
ACAACCGG	-0.0135
GACGTCTA	-0.16
CATTTGCC	-0.253
ATACTGTA	0.0984
AGGCGCAC	-0.0157
CGAGTACC	-0.0949
AATGATAC	0.22

Sequence	PBM E-score
CACTTCAA	0.128
GGAAGGGA	-0.15
ACGGCCGC	-0.173
GGAGGTTA	-0.123
AGAAGGGA	-0.344
AAACAACT	0.188
AAAGAGGA	-0.0608
GTATATCA	0.153
GCCGAGCA	-0.337
CACCTCCC	-0.246
AAATTAGC	0.154
CGGTCAGC	-0.0465
GATAAGGA	0.0444
GGAAATGA	0.133
AACAACTG	0.271
AACACTAA	0.0799
CGCTAGCA	-0.0834
AATCACGT	0.153
GCACGAAC	0.00932
AGAGCACG	-0.199
GGAATCAC	0.0639
CCATCTAA	0.172
